Reference: PubChem BioAssay AID651804 (National Center for Advancing Translational Sciences (NCATS), 2012)
In all, about 1,200 compounds went through this assay and about 20 (2%) were called active. Inconclusive means that the source gave no clear call. Such entries were picked first, then a sample of the others. Calls follow the shape of the dose curve; as a rule, active = well fitted inhibition curve with a large enough effect; inconclusive = small, poorly fitted or top-dose-only effect; inactive = no such curve, though single readings can be large or run the other way. Potencies of inconclusive entries are left out as doubtful fits. Peptide text beside a SMILES is read from it.

The compounds below were run against Transcriptional regulator ERG (Homo sapiens) (UniProt P11308) (assay: qHTS for Small Molecule Inhibitors of the ERG Ets/DNA interaction: HTRF assay against cherry picks). Details: His-ERG Ets domain with biotin-DNA; activity change, negative = inhibition: at 154 µM (top of the series).
UniProt P11308, sequence (P11308 whole entry, looked up, the tested form may be a part): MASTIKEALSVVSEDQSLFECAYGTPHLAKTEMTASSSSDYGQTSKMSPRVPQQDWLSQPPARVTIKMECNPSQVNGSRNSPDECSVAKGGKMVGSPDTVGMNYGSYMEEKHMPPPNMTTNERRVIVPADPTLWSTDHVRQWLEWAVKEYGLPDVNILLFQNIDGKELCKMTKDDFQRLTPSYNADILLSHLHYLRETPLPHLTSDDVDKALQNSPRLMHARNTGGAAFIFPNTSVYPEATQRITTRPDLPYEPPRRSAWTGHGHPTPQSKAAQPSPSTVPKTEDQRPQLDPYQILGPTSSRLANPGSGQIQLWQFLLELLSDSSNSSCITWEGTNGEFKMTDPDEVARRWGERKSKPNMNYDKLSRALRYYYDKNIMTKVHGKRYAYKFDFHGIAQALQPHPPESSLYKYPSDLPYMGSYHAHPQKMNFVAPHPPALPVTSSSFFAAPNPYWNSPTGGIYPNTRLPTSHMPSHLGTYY
Method in brief: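 Compounds were incubated 10 min at RT with ERG Ets domain and biotinylated DNA (each added as 200 nM solution) in pH 7.5 Tris/KCl/EDTA/DTT buffer. Binding was read as FRET (ex 320, em 615 and 665 nm) between anti-His donor and streptavidin acceptor.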
Potency is read from the fitted curve at half-maximal effect; tags tell the direction and shape of the fitted curve.

| Compound | Potency | activity change, negative = inhibition |
| --- | --- | --- |
| C=CCOc1ccc(/C=N/NC(=O)C2CCCC2)cc1OCC | inconclusive [inhibitor, single point] |  |
| CC(C)C(=O)Nc1ccc(C(=O)N/N=C/c2cc(Br)cc(Br)c2O)cc1 | inconclusive [inhibitor, partial curve] |  |
| Clc1ccc(-c2nnc(-c3ccccc3)c(-c3ccccc3)n2)cc1 | inconclusive [inhibitor, single point] |  |
| C#CCn1ccc(O)c(Cc2c(F)cccc2Cl)c1=O | inconclusive [inhibitor, partial curve] |  |
| Cc1ccc(S(=O)(=O)NC2CCCC(C(=O)O)C2)cc1 (stereo not given) | inactive |  |
| Nc1ccc2c3c(cccc13)C(=O)N(c1ccccc1)C2=O | inconclusive [inhibitor, full curve, poor fit] |  |
| COc1ccc(/C=N/Nc2nnc(Cc3ccc(OC)c(OC)c3)c(=O)[nH]2)cc1OC | inconclusive [inhibitor, partial curve, poor fit] |  |
| O=C(NCc1ccccc1)NCc1cccs1 | inconclusive [inhibitor, full curve, poor fit] |  |
| O=C(CNC(=S)N(Cc1ccccc1)Cc1cccnc1)NC1CCCCC1 | inactive |  |
| CC1(c2ccccc2Cl)NC(=O)N(CC(=O)Nc2ccccc2OC(F)F)C1=O (stereo not given) | inactive |  |
| O=c1oc2ccccc2cc1-c1cn2cc(Cc3ccc(F)cc3)sc2n1 | inactive |  |
| CNc1ccc2c3c(cccc13)C(=O)N(C)C2=O | inconclusive [inhibitor, partial curve, poor fit] |  |
| Cc1cc(=O)oc2cc(OCC(=O)OCC(=O)Nc3ccc(C(C)C)cc3)ccc12 | inactive |  |
| CC1(C(=O)O)CCC(C(N)=O)C1(C)C (stereo not given) | inconclusive [inhibitor, full curve, poor fit] |  |
| COc1cc(/C=N/NS(=O)(=O)c2ccc3ccccc3c2)ccc1OCc1ccc(C(=O)O)cc1 | inconclusive [inhibitor, single point] |  |
| O=C(CSC(=S)N1CCCCC1)Nc1ncc2c(n1)CCCC2=O | inconclusive [inhibitor, single point] |  |
| COc1ccc(CNC(=O)CN2C(=O)NC3(CCCCCC3)C2=O)cc1OC | inactive |  |
| O=C(Cc1csc(-c2ccccc2)n1)NCc1ccc(F)cc1 | inactive |  |
| Cn1c(=O)c(N)c2c3c(c(Br)ccc31)C(=O)c1ccccc1-2 | inconclusive [inhibitor, partial curve, poor fit] |  |
| N#CC12COC3(CCCCC3C1(C#N)C#N)OC2=N (stereo not given) | inconclusive [inhibitor, full curve, poor fit] |  |
| O=C(OCC(=O)N1CCN(c2ccccc2)CC1)c1cccc([N+](=O)[O-])c1 | inconclusive [inhibitor, partial curve] |  |
| CC1CCN(c2ccc(/C=N/n3nnnc3N)cc2[N+](=O)[O-])CC1 | inconclusive [inhibitor, partial curve] |  |

| Compound | Potency | activity change, negative = inhibition |
| --- | --- | --- |
| Cn1ccc(C(=O)OCC(=O)Nc2ccccc2)n1 | inactive |  |
| N#Cc1c(N)sc(=S)c2c1CCCCC2 | inconclusive [inhibitor, partial curve, poor fit] |  |
| COCCNC(=O)C(OC(=O)C1=Cc2ccccc2OC1)C(C)C (stereo not given) | inconclusive [inhibitor, single point] |  |
| C=CCn1c(=O)c2c(nc(-c3ccc(S(=O)(=O)O)cc3)n2C)n(C)c1=O | inconclusive [inhibitor, single point] |  |
| COc1ccc(OC)c2c1C(=O)c1ccccc1C2=O | active: 35.5 µM |  |
| CC(OC(=O)c1cc(=O)[nH]c2ccccc12)C(=O)NCc1ccccc1 (stereo not given) | inconclusive [inhibitor, single point] |  |
| COc1ccccc1/C=N\Nc1ccccc1[N+](=O)[O-] | inconclusive [inhibitor, full curve, poor fit] |  |
| Cc1ccc(S(=O)(=O)N2CCC(C)CC2)c([N+](=O)[O-])c1 | inconclusive [inhibitor, single point] |  |
| COCCNC(=O)/C(C#N)=C/c1c(N2CCN(c3cccc(Cl)c3)CC2)nc2c(C)cccn2c1=O | inconclusive [inhibitor, single point] |  |
| COCCCNC(=O)c1cc2cc([N+](=O)[O-])cc(OC)c2oc1=O | inconclusive [inhibitor, full curve, poor fit] |  |
| COc1ccc(OCC(=O)Nc2cc(-c3ccccc3F)nn2-c2ccccc2)cc1 | inconclusive [inhibitor, single point] |  |
| CCOC(=O)C1=NN(C(=O)COc2ccccc2)C(O)(c2ccc(Cl)cc2)C1 (stereo not given) |  | inconclusive: -32.1% [inhibitor] |
| CCc1cccc(NC(=O)C2CCCN(S(=O)(=O)c3ccc4[nH]c(=O)ccc4c3)C2)c1 (stereo not given) | inconclusive [inhibitor, full curve, poor fit] |  |
| CCc1ccnc(NC(=O)Nc2ccc(OCc3ccccc3)cc2)c1 | inconclusive [inhibitor, single point] |  |
| CC(=O)OCCn1c2nc(=O)[nH]c(=O)c-2nc2cc(C)c(C)cc21 | inconclusive [inhibitor, partial curve, poor fit] |  |
| O=C(NC(c1ccccc1)C(Cl)Cl)c1ccccc1 (stereo not given) | inactive |  |
| CCCCSc1cc(=O)n(-c2ccccc2)nc1C(=O)OCC | inconclusive [inhibitor, partial curve, poor fit] |  |
| Cc1cccc(C(=O)N[C@H](C(=O)Nc2ccc(C)c(S(=O)(=O)N(C)C)c2)C(C)C)c1 | inactive |  |
| Clc1ccc(SCc2nc3ccccc3[nH]2)cc1 | inconclusive [inhibitor, partial curve, poor fit] |  |
| COC(=O)c1ccccc1SC(CC(=O)c1ccccc1)c1ccc(F)cc1 (stereo not given) | inactive |  |
| CC(=O)NC(Cc1ccccc1)C(=O)NC(Cc1ccccc1)C(=O)O (stereo not drawn) (Ac-Phe-Phe-OH; configuration not given here) | inconclusive [inhibitor, full curve, poor fit] |  |
| O=[N+]([O-])c1cccnc1Sc1ccccc1Cl | inconclusive [inhibitor, partial curve, poor fit] |  |

| Compound | Potency | activity change, negative = inhibition |
| --- | --- | --- |
| Cc1ccc([N+](=O)[O-])cc1NC(=O)c1ccccc1 | inconclusive [inhibitor, partial curve, poor fit] |  |
| COc1ccc(/C=C2\SC(=S)N(CC(=O)NCCO)C2=O)cc1 | inconclusive [inhibitor, partial curve, poor fit] |  |
| CCOC(=O)CC1C(=O)NCCN1C(=O)c1c(F)cccc1F (stereo not given) | inactive |  |
| COc1cc(NCCCNC(C)C)c2nccc(C)c2c1 | inconclusive [inhibitor, partial curve, poor fit] |  |
| Cc1nn(-c2ccc(Cl)cc2)c2[nH]c(CCl)cc(=O)c12 | inactive |  |
| Cc1ccc(NC(=O)COC(=O)/C=C/c2c(C)nn(-c3ccc(F)cc3)c2Cl)cc1F | inconclusive [inhibitor, partial curve] |  |
| C=CCn1c(=O)[nH]c2cc(C(=O)N3CC=C(c4ccccc4)CC3)ccc2c1=O | inconclusive [inhibitor, partial curve, poor fit] |  |
| Oc1ccc(Nc2ccc3ccccc3c2)cc1 | inconclusive [inhibitor, partial curve, poor fit] |  |
| COc1ccc(C(=O)N[C@H](C(=O)N2CCN(c3ccccc3F)CC2)C(C)C)cc1 | inactive |  |
| CN(C)C(CNC(=O)Cc1ccc([N+](=O)[O-])cc1)c1ccccc1 (stereo not given) | inconclusive [inhibitor, partial curve, poor fit] |  |
| COc1cc(C2Nc3ccccc3NC3=C2C(=O)CC(c2ccc(OC)c(OC)c2)C3)ccc1O (stereo not given) | inconclusive [inhibitor, partial curve, poor fit] |  |
| COc1ccc(C(=O)NCc2ccc(OCCN(C)C)cc2)cc1OC | inactive |  |
| O=C(Nc1ncc([N+](=O)[O-])s1)c1cccs1 | inconclusive [inhibitor, partial curve, poor fit] |  |
| O=[N+]([O-])c1cnc(N2CCCCC2)c([N+](=O)[O-])c1 | inconclusive [inhibitor, partial curve, poor fit] |  |
| CCOc1cc(C2c3c(oc4ccccc4c3=O)C(=O)N2Cc2ccc(OC)cc2)ccc1O (stereo not given) | inconclusive [inhibitor, partial curve, poor fit] |  |
| COc1ccc(C(=O)c2c[nH]c(C(=O)N=CN(C)C)c2)cc1 | inconclusive [inhibitor, full curve, poor fit] |  |
| CC1(C)OC(C)(C)/C(=C/Nc2ccc(O)cc2)C1=O | inconclusive [inhibitor, partial curve, poor fit] |  |
| CC1=CC(C)(C)N2C(=O)C(=Nc3ccc(O)cc3)c3cccc1c32 | inconclusive [inhibitor, full curve, poor fit] |  |
| C=CCOc1ccc(/C=N/NC(C)=O)cc1OCC | inconclusive [inhibitor, partial curve, poor fit] |  |
| COc1cc(/C=N/NC(=O)C(=O)NCc2ccco2)cc(Br)c1O | inconclusive [inhibitor, partial curve, poor fit] |  |
| O=C(Nc1ccc(C(=O)O)cc1)/C(=C\c1cccc([N+](=O)[O-])c1)NC(=O)c1ccc(Br)o1 | inconclusive [inhibitor, partial curve] |  |
